Data as given in PubChem BioAssay AID485294 (National Center for Advancing Translational Sciences (NCATS), 2010).
Out of some 370,000 compounds screened, about 150 (0.041%) were called active. This list was built around the results that the source calls inconclusive (neither active nor inactive); the mix of calls is not that of the screen. Calls come from the whole dose curve; as a rule, active = well fitted inhibition curve with a large enough effect; inconclusive = small, poorly fitted or top-dose-only effect; inactive = flat fitted curve, though single readings scatter. Potencies of inconclusive entries are left out as doubtful fits.

What follows are compounds tested against Beta-lactamase (Escherichia coli (strain K12)) (UniProt P00811) (assay: qHTS Inhibitors of AmpC Beta-Lactamase (assay with detergent)). Conditions: AmpC hydrolysis of nitrocefin, absorbance 480 nm, 0.01% Triton; series mostly up to 114 µM.
Sequence of UniProt P00811 (P00811 whole entry, looked up): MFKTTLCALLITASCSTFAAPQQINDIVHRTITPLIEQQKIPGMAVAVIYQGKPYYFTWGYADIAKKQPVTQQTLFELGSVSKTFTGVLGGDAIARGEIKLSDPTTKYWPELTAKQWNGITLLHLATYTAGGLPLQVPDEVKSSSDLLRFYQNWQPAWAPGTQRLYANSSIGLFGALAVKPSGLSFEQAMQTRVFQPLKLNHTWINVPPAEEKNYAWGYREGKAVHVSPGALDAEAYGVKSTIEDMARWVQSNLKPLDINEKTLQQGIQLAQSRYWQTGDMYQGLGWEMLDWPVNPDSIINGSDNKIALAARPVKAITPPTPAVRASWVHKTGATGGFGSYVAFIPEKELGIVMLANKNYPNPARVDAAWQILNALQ
How it was run: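 AmpC (5.3 nM in the dispensed reagent) in 20 mM phosphate pH 7.0 with 0.01% (detergent screen) or 0.0001% Triton X-100 was preincubated with compounds for 15 min at room temperature. Nitrocefin was then added from an 800 uM solution, and hydrolysis was followed at 480 nm.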
Note: nearly all actives have a fitted effect of over 25% in size.
Potency is the fitted concentration of half-maximal effect; tags give direction and shape of the fitted curve.

Compound | Potency
Cc1cc(NS(=O)(=O)c2ccc(NC(=O)Cc3ccc(Cl)c(Cl)c3)cc2)no1 | inconclusive [inhibitor, partial curve, poor fit]
Cc1ccc(C)c(NC(=O)CSc2ccc3nc(-c4ccccc4)cn3n2)c1 | inactive
CCNS(=O)(=O)c1ccc(CCC(=O)N2CCN(c3ccccc3F)CC2)cc1 | inconclusive [inhibitor, partial curve, poor fit]
Cc1ccc(CNc2ccc3nnc(-c4ccccc4)n3n2)cc1 | inconclusive [inhibitor, partial curve, poor fit]
Cc1ccccc1OCC(O)CN1CCN(CCN2C(=O)c3cccc4cccc(c34)C2=O)CC1 (centres undefined) | inconclusive [inhibitor, full curve, poor fit]
CCOC(=O)c1cnc(SC)nc1Nc1cccc2ccccc12 | inconclusive [inhibitor, full curve]
Oc1cc2c(cc1O)C1c3ccc(O)c(O)c3OCC1(O)C2 (centres undefined) | inactive
Nc1nc2ccccc2cc1S(=O)(=O)c1ccccc1 | inconclusive [inhibitor, full curve]
CC(CNC(=O)COc1ccccc1)OC(=O)Nc1cccc(Cl)c1 (centres undefined) | inconclusive [inhibitor, full curve, poor fit]
Cc1cccc(C2(c3cccc(C)c3)OC(=O)c3ccccc32)c1 | inconclusive [inhibitor, single point]
Cc1ccc(C(=O)Nc2cccc3[nH]c(C(F)(F)F)nc23)cc1 | inactive
COc1ccc(OC)c(C2C(C(=O)c3sc(C)nc3C)=C(O)C(=O)N2CCN2CCOCC2)c1 (centres undefined) | inconclusive [inhibitor, partial curve, poor fit]
Cc1cc(-c2ccccc2)nc2cc(C(=O)OC(C)C)nn12 | inconclusive [inhibitor, full curve, poor fit]
Cc1ccccc1Nc1nc(N)c(C(=O)c2ccccc2Cl)s1 | inconclusive [inhibitor, partial curve, poor fit]
CCN1CCN(c2oc(COc3ccc(-c4ccccc4)cc3)nc2C#N)CC1 | inconclusive [inhibitor, full curve, poor fit]
Cc1ccc(OCCCN2CCOCC2)c([N+](=O)[O-])c1 | inactive
CCOC(=O)C1CCN(c2c(N3CCCCCC3)c(=O)c2=O)CC1 | inactive
Cc1ccc(C(CNS(=O)(=O)c2ccc([N+](=O)[O-])cc2)N2CCN(C)CC2)cc1 (centres undefined) | inconclusive [inhibitor, partial curve, poor fit]
CCc1nc2ccccc2c(NC(=O)CN2CCC(C)CC2)c1C | inconclusive [inhibitor, full curve]
COc1ccc(C(CC(=O)O)NC(=O)COc2ccc(C)cc2)cc1OC (centres undefined) | inconclusive [inhibitor, partial curve, poor fit]
NC(=O)c1ccc(NC(=O)CCCN2C(=O)c3ccccc3C2=O)cc1 | inconclusive [inhibitor, single point]
CC(C)(C)C1(C)OC(=O)C(=Cc2ccc(OCC(=O)Nc3ccccc3)cc2)C(=O)O1 (centres undefined) | inconclusive [inhibitor, partial curve]

Compound | Potency
Cc1nc(NC(=O)c2cc3c(s2)CCCCC3)sc1C(=O)N(C)C | inconclusive [inhibitor, full curve, poor fit]
CC(Sc1nnc(-c2ccncc2)n1C)C(=O)NCC1CCCO1 (centres undefined) | inconclusive [inhibitor, full curve, poor fit]
CCOC(=O)C1=C(C)Nc2nc(C)nn2C1c1ccc(OC)c(OC)c1 (centres undefined) | inconclusive [inhibitor, partial curve, poor fit]
CN(CCOc1ccccc1)Cc1nc2cc(Cl)ccc2c(=O)[nH]1 | inconclusive [inhibitor, single point]
CCN1CCN(C(=O)c2ccc(Sc3ccccc3Cl)c([N+](=O)[O-])c2)CC1 | inconclusive [inhibitor, full curve, poor fit]
Fc1ccc(-c2nnc(CSc3nnc(-c4ccc5c(c4)OCO5)o3)o2)cc1 | inconclusive [inhibitor, full curve]
COc1ccc(-c2csc3ncnc(N4CCN(C(=O)c5ccco5)CC4)c23)cc1 | inconclusive [inhibitor, partial curve, poor fit]
Cc1ccc(C)c(OC(=O)CN2C(=O)c3ccccc3C2=O)c1 | inconclusive [inhibitor, full curve, poor fit]
CCOc1c(C=C(C#N)C#N)c2ccccc2n1CC | inconclusive [inhibitor, full curve, poor fit]
CCC(C)c1ccc(OCCN2CCCC2)cc1 (centres undefined) | inconclusive [inhibitor, full curve, poor fit]
O=C(C1CCC1)N1CCN(S(=O)(=O)c2ccc(F)cc2)CC1 | inactive
O=C(O)c1cc(Cl)ccc1NC(=O)C1CCCO1 (centres undefined) | inconclusive [inhibitor, full curve, poor fit]
COc1ccc(NC(=O)c2cc(-c3ccccc3F)no2)cc1 | inactive
O=C(Oc1c(Cl)cc(Cl)c2cccnc12)c1cccs1 | inconclusive [inhibitor, partial curve, poor fit]
CS(=O)(=O)c1ccc2nc(NC(=O)c3cccc([N+](=O)[O-])c3)sc2c1 | inconclusive [inhibitor, partial curve]
CCOC(=O)N1CCN(C(=O)Nc2ccc3oc(C)nc3c2)CC1 | inconclusive [inhibitor, single point]
O=C(NCCCN1CCN(c2cccc(Cl)c2)CC1)c1ccc2nc(Cc3ccccc3)oc2c1 | inconclusive [inhibitor, full curve, poor fit]
Nc1cc(Cl)ccc1C(=O)OCC(=O)N1CCOCC1 | inactive
COC(=O)c1c(NS(=O)(=O)c2ccccc2)csc1C | inconclusive [inhibitor, full curve, poor fit]
CC(C)c1nnc(NC(=O)CSc2nnc(-c3ccco3)o2)s1 | inconclusive [inhibitor, single point]
COc1ccc(-n2cc(C(=O)O)c(=O)cc2C)cc1 | inactive
Cn1nc(-c2ccccc2)c(CSc2ccccc2Cl)c1Cl | inconclusive [inhibitor, full curve]

Compound | Potency
CCOc1ccc(NC(=O)CN(C)C(=O)c2ccccc2SCc2c(C)noc2C)cc1OCC | inconclusive [inhibitor, partial curve, poor fit]
Cc1cc(C)nc(N2CCC(C(=O)NCc3cccs3)CC2)n1 | inconclusive [inhibitor, full curve, poor fit]
C=CCSC1=C(C#N)C(c2ccc(C(C)C)cc2)CC(=O)N1 (centres undefined) | inconclusive [inhibitor, full curve, poor fit]
CC(C)C(NC(=O)c1ccc2c(c1)OCO2)C(=O)N/N=C/c1cccs1 (centres undefined) | inactive
Nc1ncn(C(=O)c2ccco2)n1 | inconclusive [inhibitor, full curve, poor fit]
Cc1ccc(NC(=O)CN2C(=O)N/C(=C/c3ccc(C)s3)C2=O)cc1 | inactive
O=C(NCC1CCCO1)c1ccc([N+](=O)[O-])s1 (centres undefined) | inconclusive [inhibitor, partial curve]
COCCC(=O)N1CCC(Oc2ccc(C(=O)N3CCCCC3CCO)cc2)CC1 (centres undefined) | inconclusive [inhibitor, full curve]
O=C(NC(=S)Nc1ccccc1)c1csnn1 | inconclusive [inhibitor, partial curve, poor fit]
COc1ccc(CSCC(=O)N/N=C/c2ccc(OCC(=O)N3CCCCC3)cc2)cc1 | inconclusive [inhibitor, full curve, poor fit]
Cc1ccc(NC(=O)c2cc(-c3ccccc3)n[nH]2)cc1 | inconclusive [inhibitor, partial curve, poor fit]
O=C(CNCCCO)Nc1cc(C(F)(F)F)cc(NC(=O)CNCCCO)c1Cl | inconclusive [inhibitor, full curve, poor fit]
Cc1ccc2[nH]c(=O)c(CN(CCCN3CCOCC3)C(=O)Nc3cccc(Cl)c3)cc2c1 | inconclusive [inhibitor, partial curve]
CN(Cc1ccc(Cl)s1)C(=O)CCl | inconclusive [inhibitor, full curve, poor fit]
COc1ccc(OCCn2cc(C=O)c3ccccc32)cc1 | inconclusive [inhibitor, full curve, poor fit]
O=C1c2[nH]nc(-c3ccccc3O)c2C(c2cccc(O)c2)N1Cc1ccco1 (centres undefined) | inconclusive [inhibitor, full curve, poor fit]
O=C(Cn1nc(Cc2ccncc2)c2ccccc2c1=O)N1CCc2ccccc2C1 | inconclusive [inhibitor, full curve, poor fit]
CCNc1nc(NCC)n2c(SCC(=O)Nc3c(C)cccc3C)nnc2n1 | inactive
CC(=O)c1ccc(OCc2cc(C(=O)NCCc3ccc(Cl)cc3)no2)cc1 | inconclusive [inhibitor, partial curve, poor fit]
CC1(C)CN(c2ccc(N3CC(C)(C)C3=O)cc2)C1=O | inactive
